Data on 43 compounds can be found in PMC4336329 (PLoS ONE, 2015).

Screen size: about 310,000 compounds; about 2,200 (0.71%) showed an effect of 50% or more. The effect is printed as a negative number. This is one part of the list.

The target in the assay is human ether-à-go-go-related gene (hERG) potassium channel (human, UniProt Q12809). The experiment in a line: primary screen, population patch clamp on CHO cells stably expressing hERG.
Chain of human ether-à-go-go-related gene (hERG) potassium channel (Q12809 whole entry, looked up): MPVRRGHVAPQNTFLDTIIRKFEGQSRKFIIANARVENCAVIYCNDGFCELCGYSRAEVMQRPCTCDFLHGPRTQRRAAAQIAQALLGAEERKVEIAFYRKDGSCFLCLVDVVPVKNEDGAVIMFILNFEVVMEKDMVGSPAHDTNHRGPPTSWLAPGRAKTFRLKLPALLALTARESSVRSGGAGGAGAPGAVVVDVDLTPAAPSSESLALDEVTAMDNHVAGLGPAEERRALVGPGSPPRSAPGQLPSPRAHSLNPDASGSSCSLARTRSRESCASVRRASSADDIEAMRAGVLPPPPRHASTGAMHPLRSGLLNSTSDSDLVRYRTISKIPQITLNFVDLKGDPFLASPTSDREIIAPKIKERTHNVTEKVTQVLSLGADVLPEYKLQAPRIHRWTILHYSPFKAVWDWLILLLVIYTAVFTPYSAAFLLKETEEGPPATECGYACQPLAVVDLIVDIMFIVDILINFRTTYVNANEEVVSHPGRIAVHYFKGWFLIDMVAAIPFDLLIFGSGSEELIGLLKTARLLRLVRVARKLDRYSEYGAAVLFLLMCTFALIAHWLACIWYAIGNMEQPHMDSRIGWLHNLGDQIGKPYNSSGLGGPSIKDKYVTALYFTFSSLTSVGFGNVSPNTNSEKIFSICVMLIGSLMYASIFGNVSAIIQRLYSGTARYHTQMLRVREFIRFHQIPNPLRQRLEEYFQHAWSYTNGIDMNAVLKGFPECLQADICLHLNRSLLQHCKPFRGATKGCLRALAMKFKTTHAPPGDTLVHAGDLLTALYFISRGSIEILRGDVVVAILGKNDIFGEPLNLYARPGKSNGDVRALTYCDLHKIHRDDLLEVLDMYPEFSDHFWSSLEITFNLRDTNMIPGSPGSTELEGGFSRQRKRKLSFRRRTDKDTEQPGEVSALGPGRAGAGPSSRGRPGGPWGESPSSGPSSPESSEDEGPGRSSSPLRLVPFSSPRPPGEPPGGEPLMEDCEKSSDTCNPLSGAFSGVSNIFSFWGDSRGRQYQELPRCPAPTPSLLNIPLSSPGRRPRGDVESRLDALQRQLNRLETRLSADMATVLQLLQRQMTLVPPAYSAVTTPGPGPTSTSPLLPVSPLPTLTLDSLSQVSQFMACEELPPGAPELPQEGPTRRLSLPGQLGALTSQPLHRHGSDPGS
For `CNC(=O)CSc1nc2c([nH]c3ccccc32)c(=O)n1CCOC`, the “hERG current change (%, negative = inhibition) at 1uM” value is reported as -0.192%.

On to `CCCCCCCC(=O)N/N=C/c1ccc(Br)cc1`, for which the “hERG current change (%, negative = inhibition) at 1uM” value was 8.31%.

On to `Cc1nc(SCc2c(F)cccc2Cl)n[nH]1`, for which the “hERG current change (%, negative = inhibition) at 1uM” value was -5.61%.

For `O=C(CCn1nnc2ccccc21)Nc1nnc(Cc2ccc(F)cc2)s1`, the “hERG current change (%, negative = inhibition) at 1uM” value stood at 0.377%.

As for `CCOC(=O)c1ccc(NC(=O)C2C3CCCCC32)cc1` (stereo not shown), the “hERG current change (%, negative = inhibition) at 1uM” value was determined as 9.62%.

On to `COc1cccc(N2CC(C(=O)NNC(=O)c3ccc(Cl)cc3)CC2=O)c1` (stereo not shown), for which the “hERG current change (%, negative = inhibition) at 1uM” value worked out at 6.77%.

`Cn1cnnc1SC(C(=O)Nc1cccc(C(F)(F)F)c1)c1ccccc1` (stereo not shown): the “hERG current change (%, negative = inhibition) at 1uM” value is reported as -3.8%.

For `COc1ccc(/C=C2/SC(=S)N(CCCC(=O)Nc3ccc(O)cc3)C2=O)cc1`, the “hERG current change (%, negative = inhibition) at 1uM” value is -4.97%.

With `CCOC(=O)C1(Cc2cccc(OC)c2)CCN(Cc2cnc(C)s2)CC1`, the “hERG current change (%, negative = inhibition) at 1uM” value was determined as 11%.

For `Cc1c(C(=O)N(CCO)Cc2ccccc2)oc2c(F)cccc12`, the “hERG current change (%, negative = inhibition) at 1uM” value is on record as -3.51%.

In the case of `Cc1nc2cc(-c3ccccc3)nn2c(C)c1CCC(=O)NC(C)c1ccc2c(c1)OCCO2` (stereo not shown), the “hERG current change (%, negative = inhibition) at 1uM” value was -5.37%.

`CCOC(=O)CNC(=O)C1c2ccccc2Oc2ccccc21`: the “hERG current change (%, negative = inhibition) at 1uM” value was determined as 8.89%.

As for `C/C(=C\C(=O)C(F)(F)F)Nc1cc(C)cc(C)c1`, the “hERG current change (%, negative = inhibition) at 1uM” value is 13.7%.

Regarding `CN(C)CCCN(C(=O)c1ccc(S(=O)(=O)N(C)C)cc1)c1nc2ccc(F)cc2s1.Cl`, the “hERG current change (%, negative = inhibition) at 1uM” value is reported as 0.988%.

For the compound `COc1ccccc1OCC(=O)Nc1ccc(NC(=O)COc2ccccc2OC)cc1`, the “hERG current change (%, negative = inhibition) at 1uM” value stood at 13.7%.

On to `N#C/C(C(=O)NCc1ccccc1)=C1\SC(CCO)C(=O)N1c1ccccc1` (stereo not shown), for which the “hERG current change (%, negative = inhibition) at 1uM” value is reported as 6.42%.

For the compound `CCOC(=O)c1c(NC(=O)Cc2ccccc2)sc2c1CC(C)(C)NC2(C)C`, the “hERG current change (%, negative = inhibition) at 1uM” value is listed as -7.92%.

With `COCc1nnc(SCC(=O)NC(C)c2ccccc2)n1-c1ccccc1` (stereo not shown), the “hERG current change (%, negative = inhibition) at 1uM” value amounted to 10.7%.

`CCCN1CCN(S(=O)(=O)c2ccc(-c3cc(C)no3)s2)CC1`: the “hERG current change (%, negative = inhibition) at 1uM” value is given as 6.29%.

`Cc1nc(NC(=O)c2cccnc2Cl)sc1C`: the “hERG current change (%, negative = inhibition) at 1uM” value worked out at 8.49%.

Regarding `O=C(NN1C(=O)C2C3C=CC(C4CC34)C2C1=O)c1ccc(Br)cc1` (stereo not shown), the “hERG current change (%, negative = inhibition) at 1uM” value worked out at 8.3%.

For `CCOC(=O)c1c(C)nc2cc(C)ccn12`, the “hERG current change (%, negative = inhibition) at 1uM” value is on record as -0.0398%.

Turning to `O=C1CC(c2ccc(F)cc2)CC2=C1C(c1ccc([N+](=O)[O-])o1)Nc1ccccc1N2` (stereo not shown), the “hERG current change (%, negative = inhibition) at 1uM” value amounted to 4.59%.

Turning to `COc1c(Br)cc([N+](=O)[O-])c(OC)c1C(=O)NC(=O)Nc1cc(Cl)cc(Cl)c1`, the “hERG current change (%, negative = inhibition) at 1uM” value was determined as 10.4%.

As to `Cc1cc(C(=O)N/N=C/c2c(C)nn(-c3ccccc3)c2C)n[nH]1`, the “hERG current change (%, negative = inhibition) at 1uM” value was determined as 11.6%.

Regarding `COC(=O)C1CN(C(=O)C(C)Oc2cc(C)ccc2C(C)C)c2ccccc2O1` (stereo not shown), the “hERG current change (%, negative = inhibition) at 1uM” value is 10.3%.

Consider `COc1ccc(-n2c(=S)[nH]c3cc(C(=O)NCc4ccco4)ccc3c2=O)c(OC)c1`, for which the “hERG current change (%, negative = inhibition) at 1uM” value was 5.6%.

With `CC1CCCC(C)N1C(=O)CSCc1ccc(Cl)cc1` (stereo not shown), the “hERG current change (%, negative = inhibition) at 1uM” value is -20.2%.

As to `NC(=O)c1ccc(SCC(=O)OCC(=O)N2CCN(C(=O)c3ccco3)CC2)c([N+](=O)[O-])c1`, the “hERG current change (%, negative = inhibition) at 1uM” value was determined as 13.5%.

As for `CCN(CC)S(=O)(=O)c1ccc(NC(=O)c2cccnc2Cl)c(NC(=O)c2cccnc2Cl)c1`, the “hERG current change (%, negative = inhibition) at 1uM” value is recorded as 5.29%.

`O=C(Nc1ccc(Br)cc1)C1C2C=CC3(O2)C1C(=O)N(CCN1CCCCC1)C3C(=O)NC1CCCCC1` (stereo not shown): the “hERG current change (%, negative = inhibition) at 1uM” value is 6.17%.

On to `COc1ccccc1/C=C/C=N/N1CCN(Cc2cccc3ccccc23)CC1`, for which the “hERG current change (%, negative = inhibition) at 1uM” value was 6.23%.

As for `COc1ccc(-n2c(SCC(=O)O)nnc2-c2ccc(NC(=O)c3ccccc3)cc2)cc1`, the “hERG current change (%, negative = inhibition) at 1uM” value is reported as 14.7%.

`O=C(Nc1nc2ccccc2[nH]1)c1ccc(Br)o1`: the “hERG current change (%, negative = inhibition) at 1uM” value was -1.28%.

Take `Cc1ccc(S(=O)(=O)N2CCN(C(=O)c3ccc(-n4cncn4)c([N+](=O)[O-])c3)CC2)cc1C`: the “hERG current change (%, negative = inhibition) at 1uM” value is -28.4%.

For `CNC(=S)N(CCc1c(C)[nH]c2ccc(C)cc12)Cc1cccs1`, the “hERG current change (%, negative = inhibition) at 1uM” value came to 9.37%.

Take `O=C(Nc1ccsc1C(=O)O)c1cccc(C(F)(F)F)c1`: the “hERG current change (%, negative = inhibition) at 1uM” value is on record as 19.8%.

Take `O=C(COc1ccc2ccccc2c1)NNC(=O)C(=O)Nc1ccccc1`: the “hERG current change (%, negative = inhibition) at 1uM” value was found to be 10.6%.

With `COc1ccc(S(=O)(=O)N2CCN(c3ccccn3)CC2)cc1[N+](=O)[O-]`, the “hERG current change (%, negative = inhibition) at 1uM” value is recorded as 0.291%.

In the case of `CN(C)S(=O)(=O)c1cccc(-c2nn(-c3ccccc3)cc2/C=C(/C#N)C(=O)NCc2ccco2)c1`, the “hERG current change (%, negative = inhibition) at 1uM” value was 3.96%.

For `COc1ccc(C2C(C(=O)Nc3cccc(OC)c3)c3ccccc3C(=O)N2C)cc1` (stereo not shown), the “hERG current change (%, negative = inhibition) at 1uM” value was -0.335%.

Take `O=C(c1cccc(OC2CCN(Cc3cccc(OCCO)c3)CC2)c1)N1CCCC1`: the “hERG current change (%, negative = inhibition) at 1uM” value is listed as 13.6%.

For `CCCCN(C(=O)NC(=O)Nc1cccc(C)c1C)S(C)(=O)=O`, the “hERG current change (%, negative = inhibition) at 1uM” value was found to be 13.9%.
